# Assay results as given in the supplement of paper PMC8728848.
# The list shows a part of the results.
# B1: CV-2L (Chromobacterium violaceum), Q7NX84 (protein)
# chain: MAQQGVFTLPARINFGVTVLVNSAATQHVEIFVDNEPRAAFSGVGTGDNNLGTKVINSGSGNVRVQITANGRQSDLVSSQLVLANKLNLAVVGSEDGTDMDYNDSIVILNWPLG
# Key:
# Assay in all cases: glycan array binding signal (z-score within array); higher = stronger binding
# Settings in all cases: glycan notation: IUPAC condensed, linker removed
# [1] = molecular target: Neu5Ac(a2-3)Gal(b1-4)[Fuc(a1-3)]GlcNAc6S
# Summary of the method: (§1)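 Negative Z-scores can be read as non-binding. The Z-score is calculated within each array and then averaged across arrays of one protein sequence at different concentrations or buffers and across linkers. Arrays, 3228 in all, were curated from the Consortium for Functional Glycomics database and kept only where the protein sequence was available.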
# [2] = molecular target: Neu5Ac(a2-3)Gal6S(b1-4)GlcNAc
# Summary of the method: as §1
# [3] = molecular target: Neu5Ac(a2-3)Gal6S(b1-4)[Fuc(a1-3)]GlcNAc
# Summary of the method: as §1
# Neu5Ac(a2-3)GalNAc = molecular target: Neu5Ac(a2-3)GalNAc
# Summary of the method: as §1
# [4] = molecular target: Neu5Ac(a2-3)GalNAc(b1-4)GlcNAc
# Summary of the method: as §1
# [5] = molecular target: Neu5Ac(a2-3)[GalNAc(b1-4)]Gal(b1-4)Glc
# Summary of the method: as §1
# [6] = molecular target: Neu5Ac(a2-3)[GalNAc(b1-4)]Gal(b1-4)GlcNAc
# Summary of the method: as §1
# [7] = molecular target: Neu5Ac(a2-3)[GalNAc(b1-4)]Gal(b1-4)GlcNAc(b1-3)GalNAc
# Summary of the method: as §1
# [8] = molecular target: Neu5Ac(a2-3)[Neu5Ac(a2-6)]GalNAc
# Summary of the method: as §1
# Neu5Ac(a2-6)Gal = molecular target: Neu5Ac(a2-6)Gal
# Summary of the method: as §1
# [9] = molecular target: Neu5Ac(a2-6)Gal(b1-3)GlcNAc(b1-3)[Gal(b1-4)GlcNAc(b1-6)]Gal(b1-4)Glc
# Summary of the method: as §1
# Neu5Ac(a2-6)Gal(b1-4)Glc = molecular target: Neu5Ac(a2-6)Gal(b1-4)Glc
# Summary of the method: as §1
# [10] = molecular target: Neu5Ac(a2-6)Gal(b1-4)GlcNAc
# Summary of the method: as §1
# [11] = molecular target: Neu5Ac(a2-6)Gal(b1-4)GlcNAc(b1-2)Man(a1-3)Man(b1-4)GlcNAc(b1-4)GlcNAc
# Summary of the method: as §1
# [12] = molecular target: Neu5Ac(a2-6)Gal(b1-4)GlcNAc(b1-2)Man(a1-3)[Gal(b1-4)GlcNAc(b1-2)Man(a1-6)]Man(b1-4)GlcNAc(b1-4)GlcNAc
# Summary of the method: as §1
# [13] = molecular target: Neu5Ac(a2-6)Gal(b1-4)GlcNAc(b1-2)Man(a1-3)[GlcNAc(b1-2)Man(a1-6)]Man(b1-4)GlcNAc(b1-4)GlcNAc
# Summary of the method: as §1
# [14] = molecular target: Neu5Ac(a2-6)Gal(b1-4)GlcNAc(b1-2)Man(a1-3)[GlcNAc(b1-2)Man(b1-4)GlcNAc(b1-2)Man(a1-6)]Man(b1-4)GlcNAc(b1-4)GlcNAc
# Summary of the method: as §1
# [15] = molecular target: Neu5Ac(a2-6)Gal(b1-4)GlcNAc(b1-2)Man(a1-3)[Man(a1-6)]Man(b1-4)GlcNAc(b1-4)GlcNAc
# Summary of the method: as §1
# [16] = molecular target: Neu5Ac(a2-6)Gal(b1-4)GlcNAc(b1-2)Man(a1-3)[Neu5Ac(a2-6)Gal(b1-4)GlcNAc(b1-2)Man(a1-6)]Man(b1-4)GlcNAc(b1-4)GlcNAc
# Summary of the method: as §1
# [17] = molecular target: Neu5Ac(a2-6)Gal(b1-4)GlcNAc(b1-2)Man(a1-6)Man(b1-4)GlcNAc(b1-4)GlcNAc
# Summary of the method: as §1
# [18] = molecular target: Neu5Ac(a2-6)Gal(b1-4)GlcNAc(b1-2)Man(a1-6)[Gal(b1-4)GlcNAc(b1-2)Man(a1-3)]Man(b1-4)GlcNAc(b1-4)GlcNAc
# Summary of the method: as §1
# [19] = molecular target: Neu5Ac(a2-6)Gal(b1-4)GlcNAc(b1-2)Man(a1-6)[GlcNAc(b1-2)Man(a1-3)]Man(b1-4)GlcNAc(b1-4)GlcNAc
# Summary of the method: as §1
# [20] = molecular target: Neu5Ac(a2-6)Gal(b1-4)GlcNAc(b1-2)Man(a1-6)[Man(a1-3)]Man(b1-4)GlcNAc(b1-4)GlcNAc
# Summary of the method: as §1
# [21] = molecular target: Neu5Ac(a2-6)Gal(b1-4)GlcNAc(b1-3)Gal(b1-3)GlcNAc
# Summary of the method: as §1
# [22] = molecular target: Neu5Ac(a2-6)Gal(b1-4)GlcNAc(b1-3)Gal(b1-4)GlcNAc
# Summary of the method: as §1
# [23] = molecular target: Neu5Ac(a2-6)Gal(b1-4)GlcNAc(b1-3)Gal(b1-4)GlcNAc(b1-3)Gal(b1-4)GlcNAc
# Summary of the method: as §1
# [24] = molecular target: Neu5Ac(a2-6)Gal(b1-4)GlcNAc(b1-3)Gal(b1-4)[Fuc(a1-3)]GlcNAc(b1-3)Gal(b1-4)[Fuc(a1-3)]GlcNAc
# Summary of the method: as §1
# [25] = molecular target: Neu5Ac(a2-6)Gal(b1-4)GlcNAc(b1-3)GalNAc
# Summary of the method: as §1
# [26] = molecular target: Neu5Ac(a2-6)Gal(b1-4)GlcNAc6S
# Summary of the method: as §1
# Neu5Ac(a2-6)GalNAc = molecular target: Neu5Ac(a2-6)GalNAc
# Summary of the method: as §1
# [27] = molecular target: Neu5Ac(a2-6)GalNAc(b1-4)GlcNAc
# Summary of the method: as §1
# [28] = molecular target: Neu5Ac(a2-6)GlcNAc(b1-4)GlcNAc
# Summary of the method: as §1
# [29] = molecular target: Neu5Ac(a2-6)GlcNAc(b1-4)GlcNAc(b1-4)GlcNAc
# Summary of the method: as §1
# Neu5Ac(a2-8)Neu5Ac = molecular target: Neu5Ac(a2-8)Neu5Ac
# Summary of the method: as §1
# [30] = molecular target: Neu5Ac(a2-8)Neu5Ac(a2-3)Gal(b1-3)GalNAc(b1-4)[Neu5Ac(a2-8)Neu5Ac(a2-3)]Gal(b1-4)Glc
# Summary of the method: as §1
# [31] = molecular target: Neu5Ac(a2-8)Neu5Ac(a2-3)Gal(b1-4)Glc
# Summary of the method: as §1
# [32] = molecular target: Neu5Ac(a2-8)Neu5Ac(a2-3)[Gal(b1-3)GalNAc(b1-4)]Gal(b1-4)Glc
# Summary of the method: as §1
# [33] = molecular target: Neu5Ac(a2-8)Neu5Ac(a2-3)[GalNAc(b1-4)]Gal(b1-4)Glc
# Summary of the method: as §1
# [34] = molecular target: Neu5Ac(a2-8)Neu5Ac(a2-8)Neu5Ac
# Summary of the method: as §1
# [35] = molecular target: Neu5Ac(a2-8)Neu5Ac(a2-8)Neu5Ac(a2-3)Gal(b1-4)Glc
# Summary of the method: as §1
# [36] = molecular target: Neu5Ac(a2-8)Neu5Ac(a2-8)Neu5Ac(a2-3)[GalNAc(b1-4)]Gal(b1-4)Glc
# Summary of the method: as §1
# [37] = molecular target: Neu5Ac(a2-8)Neu5Ac(a2-8)Neu5Ac(a2-8)Neu5Ac(a2-3)[GalNAc(b1-4)]Gal(b1-4)Glc
# Summary of the method: as §1
# [38] = molecular target: Neu5Ac(b2-6)Gal(b1-4)GlcNAc
# Summary of the method: as §1
# Neu5Ac(b2-6)GalNAc = molecular target: Neu5Ac(b2-6)GalNAc
# Summary of the method: as §1
# [39] = molecular target: Neu5Ac9Ac(a2-3)Gal(b1-3)GlcNAc
# Summary of the method: as §1
binder,measurement,setting,value
B1,glycan array binding signal (z-score),[1],-0.307
same,glycan array binding signal (z-score),[2],-0.331
same,glycan array binding signal (z-score),[3],-0.346
same,glycan array binding signal (z-score),Neu5Ac(a2-3)GalNAc,-0.336
same,glycan array binding signal (z-score),[4],-0.342
same,glycan array binding signal (z-score),[5],-0.329
same,glycan array binding signal (z-score),[6],-0.335
same,glycan array binding signal (z-score),[7],-0.357
same,glycan array binding signal (z-score),[8],-0.324
same,glycan array binding signal (z-score),Neu5Ac(a2-6)Gal,-0.343
same,glycan array binding signal (z-score),[9],-0.257
same,glycan array binding signal (z-score),Neu5Ac(a2-6)Gal(b1-4)Glc,-0.332
same,glycan array binding signal (z-score),[10],-0.347
same,glycan array binding signal (z-score),[11],-0.361
same,glycan array binding signal (z-score),[12],-0.353
same,glycan array binding signal (z-score),[13],-0.336
same,glycan array binding signal (z-score),[14],-0.323
same,glycan array binding signal (z-score),[15],-0.232
same,glycan array binding signal (z-score),[16],-0.336
same,glycan array binding signal (z-score),[17],-0.335
same,glycan array binding signal (z-score),[18],-0.334
same,glycan array binding signal (z-score),[19],-0.337
same,glycan array binding signal (z-score),[20],-0.017
same,glycan array binding signal (z-score),[21],-0.33
same,glycan array binding signal (z-score),[22],-0.346
same,glycan array binding signal (z-score),[23],-0.341
same,glycan array binding signal (z-score),[24],-0.231
same,glycan array binding signal (z-score),[25],-0.326
same,glycan array binding signal (z-score),[26],-0.351
same,glycan array binding signal (z-score),Neu5Ac(a2-6)GalNAc,-0.334
same,glycan array binding signal (z-score),[27],-0.339
same,glycan array binding signal (z-score),[28],-0.349
same,glycan array binding signal (z-score),[29],-0.35
same,glycan array binding signal (z-score),Neu5Ac(a2-8)Neu5Ac,-0.328
same,glycan array binding signal (z-score),[30],-0.354
same,glycan array binding signal (z-score),[31],-0.351
same,glycan array binding signal (z-score),[32],-0.33
same,glycan array binding signal (z-score),[33],-0.354
same,glycan array binding signal (z-score),[34],-0.349
same,glycan array binding signal (z-score),[35],-0.332
same,glycan array binding signal (z-score),[36],-0.327
same,glycan array binding signal (z-score),[37],-0.348
same,glycan array binding signal (z-score),[38],-0.331
same,glycan array binding signal (z-score),Neu5Ac(b2-6)GalNAc,-0.349
same,glycan array binding signal (z-score),[39],-0.322
